Consider 89 compounds from article PMC4336329 (PLoS ONE, 2015).

The structures appear in SMILES notation. Among all 310,000 compounds or so, about 2,200 (0.71%) showed an effect of 50% or more. Effects have a minus sign here. Some of the results follow.

The experiment deals with human ether-à-go-go-related gene (hERG) potassium channel (human, UniProt Q12809). Kind of experiment: primary screen, population patch clamp on CHO cells stably expressing hERG.
human ether-à-go-go-related gene (hERG) potassium channel, sequence (Q12809 whole entry, looked up): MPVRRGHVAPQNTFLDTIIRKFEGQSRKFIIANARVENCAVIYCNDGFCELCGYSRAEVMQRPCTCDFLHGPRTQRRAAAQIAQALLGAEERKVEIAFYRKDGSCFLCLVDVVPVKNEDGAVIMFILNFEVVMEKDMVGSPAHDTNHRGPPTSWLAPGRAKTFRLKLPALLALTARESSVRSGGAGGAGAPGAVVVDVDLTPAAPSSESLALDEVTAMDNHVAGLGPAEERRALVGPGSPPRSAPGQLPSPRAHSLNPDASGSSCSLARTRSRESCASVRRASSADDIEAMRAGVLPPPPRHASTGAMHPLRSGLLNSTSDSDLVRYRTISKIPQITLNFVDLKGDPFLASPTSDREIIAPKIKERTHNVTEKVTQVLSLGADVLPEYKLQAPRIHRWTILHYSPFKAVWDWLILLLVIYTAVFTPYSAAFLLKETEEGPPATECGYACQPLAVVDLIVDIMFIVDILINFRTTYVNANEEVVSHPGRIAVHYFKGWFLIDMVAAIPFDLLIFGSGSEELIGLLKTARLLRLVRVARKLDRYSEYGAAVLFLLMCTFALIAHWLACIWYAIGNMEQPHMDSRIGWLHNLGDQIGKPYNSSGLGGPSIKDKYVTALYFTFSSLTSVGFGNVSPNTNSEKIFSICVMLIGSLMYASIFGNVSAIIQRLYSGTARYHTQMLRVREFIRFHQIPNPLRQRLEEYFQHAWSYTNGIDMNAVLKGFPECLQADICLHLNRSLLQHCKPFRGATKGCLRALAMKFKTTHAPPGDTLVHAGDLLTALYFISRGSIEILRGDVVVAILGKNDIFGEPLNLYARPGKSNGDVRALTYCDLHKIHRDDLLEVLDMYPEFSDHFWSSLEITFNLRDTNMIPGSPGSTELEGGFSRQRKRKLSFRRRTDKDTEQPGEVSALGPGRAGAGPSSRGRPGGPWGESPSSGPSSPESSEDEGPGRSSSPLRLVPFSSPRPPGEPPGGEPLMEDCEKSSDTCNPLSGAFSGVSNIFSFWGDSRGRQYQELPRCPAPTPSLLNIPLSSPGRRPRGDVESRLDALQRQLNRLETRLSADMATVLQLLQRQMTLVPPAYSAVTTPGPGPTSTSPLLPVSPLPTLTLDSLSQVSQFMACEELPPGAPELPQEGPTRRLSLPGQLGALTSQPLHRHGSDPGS
`C/C(=N\NS(=O)(=O)c1ccc([N+](=O)[O-])cc1)c1c[nH]c2ccccc12`: the “hERG current change (%, negative = inhibition) at 1uM” value is given as 1.12%.
On to `Cc1ccc2oc(-c3ccc(NC(=O)CC(C)C)cc3)nc2c1`, for which the “hERG current change (%, negative = inhibition) at 1uM” value is on record as 5.3%.
Under `Cc1ccc2nc(C(C)O)[nH]c2c1` (centres unmarked) stands 15.9%; under `Cc1cc(NC(=O)C(C)C)ncc1NC(=O)c1ccco1`, 1.82%.
Under `CCOC(=O)N1CCN(S(=O)(=O)c2ccc(OCC(=O)OC)c(Cl)c2)CC1` stands 0.861%; under `Cc1cc(=O)oc2cc(Oc3ncccc3[N+](=O)[O-])ccc12`, 1.11%.
The same measure for `CCCNC(=O)c1cc2c3ccccc3n(C)c2s1`: -6.43%; for `O=c1cccc(-c2ccccc2)[nH]1`: -1.8%.
With `CCN(CC)CCOc1ccccc1C(C)=O.O=C(O)C(=O)O`, the “hERG current change (%, negative = inhibition) at 1uM” value is 10.4%.
Under `O=C(CCCn1cnc([N+](=O)[O-])n1)Nc1ccc(Cl)c(Cl)c1` stands 0.498%; under `O=C1NCC2=C1C(c1ccccc1)Nc1ccccc1N2` (centres unmarked), 13%.
Consider `Cc1ccc(-c2c(C(=O)N/N=C/c3sccc3C)nnn2-c2nonc2N)cc1`, for which the “hERG current change (%, negative = inhibition) at 1uM” value was 21.4%.
On to `Cc1ccc(-c2cc(C(=O)N/N=C/c3ccc(Cl)cc3)n[nH]2)o1`, for which the “hERG current change (%, negative = inhibition) at 1uM” value was determined as 6.74%.
For the compound `Cc1cc(NC(=O)Cn2c(=O)c3c(ncn3CC(C)C)n(Cc3ccccc3)c2=O)no1`, the “hERG current change (%, negative = inhibition) at 1uM” value is listed as 11.5%.
For the compound `O=C(OCC(=O)N1CCC(Cc2ccccc2)CC1)c1ccccc1NCCO`, the “hERG current change (%, negative = inhibition) at 1uM” value is on record as -1.48%.
Under `CCSc1nnc(-c2cnn(-c3ccccc3)c2-n2cccc2)n1C` stands -4.01%.
Under `CN1CCN(C(=O)CN(CCc2ccccc2)S(C)(=O)=O)CC1` stands 8.13%.
Under `Cc1ccc(CNC(=O)COC(=O)c2cnc(C)cn2)cc1` stands 8.72%; under `Cc1ccc(C)c(NC(=O)CSc2nc3ccc(N4C(=O)c5ccccc5C4=O)cc3s2)c1`, 15.6%; under `CCCN1CCN(CCCNC(=O)c2ccc3c(Cl)c4c(nc3c2)CCCC4)CC1`, -4.36%.
Consider `O=C(CN1c2ccccc2Sc2ccccc21)NNC(=O)Nc1cccc(Cl)c1`, for which the “hERG current change (%, negative = inhibition) at 1uM” value turned out to be 5.83%.
On to `COc1cc(CCCN2C(=S)NC[C@@H]2CC2CCCCC2)cc(OC)c1OC`, for which the “hERG current change (%, negative = inhibition) at 1uM” value was 11.5%.
Under `CC(C)(C)C(=O)Nc1nnc(CSCc2ccccc2F)s1` stands 5.11%.
In the case of `NC(=O)CNC(=O)c1ccc(Cl)cc1`, the “hERG current change (%, negative = inhibition) at 1uM” value was determined as 18%.
Under `CCC(C(=O)O/N=C(\N)c1cccc(C)c1)c1ccccc1` (centres unmarked) stands 14.2%; under `O=C1CCC(=O)N1Cc1c(Cl)cccc1Cl`, 13%.
The same measure for `COc1ccc(/C=N\NC(=O)c2cccc(F)c2)cc1COc1ccccc1`: 16.1%; for `CC(=O)c1cc(C#N)c(SCc2ccccc2C#N)nc1C`: 7.39%; for `COc1cc(OC)cc(C(=O)N[C@H](C(=O)Nc2cc(C)cc(C)c2)C(C)C)c1`: -1.81%.
Regarding `O=C(O)C1CCN(C(=O)CSc2nc3ccccc3c(=O)n2-c2ccc(Cl)cc2)CC1`, the “hERG current change (%, negative = inhibition) at 1uM” value came to 19.7%.
On to `Cn1c(CN2CCC(C(N)=O)CC2)c(C#N)c2ccccc21`, for which the “hERG current change (%, negative = inhibition) at 1uM” value is given as 13.7%.
For the compound `Cc1ccc(C(=O)N/N=C\c2ccc(OC(=O)c3cccc(F)c3)cc2)cn1`, the “hERG current change (%, negative = inhibition) at 1uM” value came to 10.3%.
The same measure for `CSC1=NCCN1S(=O)(=O)c1ccc(Cl)cc1`: 8.08%.
Under `CCOc1ccc(Cc2nnc(SCC(=O)Nc3c(C)cccc3C)[nH]c2=O)cc1` stands 9.68%; under `Cn1cc(CN2CCCC(CO)(Cc3cccc(Cl)c3)C2)cn1` (centres unmarked), 3.46%.
Turning to `Cc1ccc(-c2cc(C(=O)Nc3cnn(C(C)C)c3)no2)cc1`, the “hERG current change (%, negative = inhibition) at 1uM” value turned out to be 22.7%.
As to `COc1ccccc1C(c1nnnn1C(C)(C)C)N1CCN(Cc2ccncc2)CC1` (centres unmarked), the “hERG current change (%, negative = inhibition) at 1uM” value was 10.2%.
The same measure for `CN(C)c1cc[n+](CC(=O)Nc2cccc([N+](=O)[O-])c2)cc1.[Cl-]`: 13.1%; for `CCC(C)(C)NC(=O)c1cc(S(=O)(=O)N2CCCCC2)ccc1N1CCOCC1`: 5.04%; for `CCN(C(=O)c1c(C)noc1C)c1c(N)n(Cc2ccccc2)c(=O)[nH]c1=O`: 9.94%.
Turning to `COc1cc(C(=O)Oc2ccc3ccc(O)cc3c2)cc(OC)c1OC`, the “hERG current change (%, negative = inhibition) at 1uM” value turned out to be 7.69%.
Take `Nc1ccc(-n2nncc2-c2ccccc2)cc1`: the “hERG current change (%, negative = inhibition) at 1uM” value turned out to be 9.76%.
Under `CCCCC[C@H]1CN(C2CCCCC2)C(=O)[C@@H]1CC(=O)NCc1ccccc1` stands -13.9%.
In the case of `O=C(CSc1nnc(-c2ccccc2)n1-c1ccccc1)N1c2ccccc2Sc2ccccc21`, the “hERG current change (%, negative = inhibition) at 1uM” value amounted to 8.4%.
Under `O=S(=O)(Nc1ccc(N2CCCCC2)cc1)c1ccccc1` stands -2.09%.
`O=C1CCC(C(=O)N2CCCCCCC2)CN1Cc1cccc(C(F)(F)F)c1` (centres unmarked): the “hERG current change (%, negative = inhibition) at 1uM” value turned out to be 4.81%.
Turning to `COc1ccccc1C(=O)NCCC(=O)NC(C)CCc1ccccc1` (centres unmarked), the “hERG current change (%, negative = inhibition) at 1uM” value was determined as 5.17%.
Turning to `COc1cc(NC(=O)N[C@@H](Cc2c[nH]c3ccccc23)C(=O)O)c(C(=O)O)cc1OC`, the “hERG current change (%, negative = inhibition) at 1uM” value came out at 14.1%.
`CCOc1ccc(NC(=O)NC23CC4CC(CC(C4)C2)C3)cc1`: the “hERG current change (%, negative = inhibition) at 1uM” value is 3.43%.
Under `CCOC(=O)C1(Cc2ccc(Cl)cc2)CCN(C(C)Cc2ccc(O)c(OC)c2)CC1` (centres unmarked) stands -7.39%; under `COc1ccc(C(=O)N2CC3(C)C4CCC3(C)C2(C#N)C4)cc1OC` (centres unmarked), 2.85%; under `C/C(CC1CC(C)OC1=O)=N\NC(N)=S` (centres unmarked), 10.9%.
`CCC(C)[C@H](NC(=O)OC(C)(C)C)C(=O)N/N=C/C1=Cc2ccccc2OC1` (some centres unmarked): the “hERG current change (%, negative = inhibition) at 1uM” value was -5.83%.
The same measure for `COc1ccc(N2C(=O)C(CC(=O)Nc3ccc(F)cc3)N(CCc3cccs3)C2=O)cc1` (centres unmarked): 12%; for `COc1ccc2cc1Oc1ccc(cc1)C[C@H]1c3c(cc4c(c3Oc3cc5c(cc3OC)CCN(C)[C@@H]5C2)OCO4)CCN1C`: 0.351%.
On to `Cc1cccc(N2C(=O)C3C4CC(=O)C(c5ccccc54)C3C2=O)c1C` (centres unmarked), for which the “hERG current change (%, negative = inhibition) at 1uM” value was 6.33%.
For the compound `CS(=O)(=O)N(CC(=O)NCc1ccccc1)C1CCCCC1`, the “hERG current change (%, negative = inhibition) at 1uM” value is reported as -0.528%.
The same measure for `Cc1cc(OCCCn2ccnc2)cc(C(C)C)c1`: 11.1%; for `Cc1ccc(S(=O)(=O)N(C)C)cc1NC(=O)C(C)OC(=O)C1CCCC1` (centres unmarked): -24.6%; for `CCOc1cc(/C=N/NC(=O)CSc2nnc(C)s2)ccc1OCc1ccccc1Cl`: 6.83%.
Under `CNc1ncc(C(=O)c2ccc(Cl)cc2)s1` stands 3.44%; under `Cn1c(=O)c(=O)n(C)c2cc(N3CCOCC3)c(NS(=O)(=O)c3ccc(Br)cc3)cc21`, 7.16%.
Under `Cc1onc(-c2ccccc2Cl)c1C(=O)NCc1ccc(S(N)(=O)=O)cc1` stands 15.5%; under `CCOc1ccc(Nc2nc(N)nc(CSC(=S)N3CCOCC3)n2)cc1`, 0.127%.
With `CCCCOC(=O)C1CN(c2ccccc2)N=C1C(=O)OCC` (centres unmarked), the “hERG current change (%, negative = inhibition) at 1uM” value was 10.5%.
Under `CCOc1ccc(N(C)C(=O)CCc2nnc3ccc(NCc4ccco4)nn23)cc1` stands 12.7%; under `O=C(Nc1ccc(OCC(=O)N2CCOCC2)cc1)c1cc(F)c(F)cc1Cl`, 16.1%; under `C/C(Cc1ccccc1)=N\NC(=O)c1cc(C(C)(C)C)[nH]n1`, 11.4%.
Under `CSc1nc(SCC(N)=O)c2c3c(sc2n1)CN(C)CC3` stands 5.66%; under `COCC(=O)Nc1cc(=O)n(C)c(=O)n1C`, 8.4%; under `Cc1ccc(-c2nc3ncccc3o2)cc1N`, 14.2%.
Under `CCCc1cc(=O)oc2c(C)c(O[C@@H]3O[C@H](CO)[C@@H](O)[C@H](O)[C@H]3O)ccc12` stands 11.6%; under `CC(C)(O)P(=O)(O)CCc1ccccc1`, 20.4%.
In the case of `Cc1ccccc1OCC(=O)N/N=C/c1cn(Cc2ccccc2)c2ccccc12`, the “hERG current change (%, negative = inhibition) at 1uM” value is 8.75%.
For the compound `O=C(CCSc1nnc(-c2ccco2)o1)Nc1ccccc1`, the “hERG current change (%, negative = inhibition) at 1uM” value came out at 3.65%.
Under `CC(C)CC(NC(=O)C(NC(=O)C1OC2OC(C)(C)OC2C2OC(C)(C)OC12)C(C)C)C(=O)O` (centres unmarked) stands 12%; under `Cc1ccc2sc(N(CCCN(C)C)C(=O)c3ccc(S(=O)(=O)N4CCCCCC4)cc3)nc2c1C.Cl`, 7.51%; under `O=C(NC(CC1CCCCC1)C(=O)O)c1ccccc1` (centres unmarked), 12.1%.
For `Fc1ccccc1Cc1noc(CN2CCN(C/C=C/c3ccccc3)CC2)n1`, the “hERG current change (%, negative = inhibition) at 1uM” value was -40.3%.
With `Cn1c(SCC(=O)N2CCCCC2)nnc1-c1ccc(S(=O)(=O)N2CCOCC2)cc1`, the “hERG current change (%, negative = inhibition) at 1uM” value is reported as -14.4%.
As for `CCN(CC)CCNC(=O)Cn1cnc2sc(C)c(S(=O)(=O)N3CCOCC3)c2c1=O`, the “hERG current change (%, negative = inhibition) at 1uM” value turned out to be 11.4%.
Under `O=[N+]([O-])c1ccc(N2CCN(c3ccc(F)cc3)CC2)cc1` stands 5.71%; under `CC(C(=O)Nc1cc(Cl)cc(Cl)c1)N1CCCC1` (centres unmarked), 15.1%.
Under `CCCn1c(CCc2ccccc2)nnc1SCC(=O)N1CCCC1` stands -4.96%; under `COc1ccc(-c2csc(Nc3cccnc3)n2)cc1OC`, 9.42%.
In the case of `CC(=O)Nc1nccc(-c2cc(-c3ccccc3)no2)n1`, the “hERG current change (%, negative = inhibition) at 1uM” value stood at 10.6%.
Consider `COC(=O)c1ccc(N)c(N=CC2=C(O)CC(C)(C)CC2=O)c1`, for which the “hERG current change (%, negative = inhibition) at 1uM” value was 12.2%.
Turning to `CCOc1ccc(C(=O)OCC(=O)N2CC(C)OC(C)C2)cc1OCC` (centres unmarked), the “hERG current change (%, negative = inhibition) at 1uM” value is on record as 13.1%.
Turning to `O=C(OCC(=O)N1CCc2ccccc21)c1ccccc1F`, the “hERG current change (%, negative = inhibition) at 1uM” value is reported as 11.6%.
